Results from PubChem BioAssay AID652104 (National Center for Advancing Translational Sciences (NCATS), 2013).
In all, about 410,000 compounds went through this assay and about 7,200 (1.8%) were called active. Inconclusive results, whose numbers are uncertain, are shown with a selection of clear calls. Calls come from the whole dose curve; as a rule, active = well fitted activation curve with a large enough effect; inconclusive = small, poorly fitted or top-dose-only effect, or another doubt; inactive = no such curve, though single readings can be large or run the other way. No potency is given beside an inconclusive call; the fits are too rough.

Experiment: qHTS of TDP-43 Inhibitors; note: nearly all actives have a fitted effect of over 50% in size; for growth rescue (activation): % of control where 0% means no effect
Conditions: TDP-43 expressing yeast growth rescue, BacTiter-Glo, 24 h; growth rescue (activation): at 46.1 µM (top of the series) unless noted
In short: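 In this qHTS, compounds that restore growth of yeast expressing TDP-43 appear as activators. Cells (OD600=0.02, galactose medium, raffinose-pregrown) are incubated with compound 24 hr at 30 deg C and growth is quantified by BacTiter-Glo.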
Potency is the fitted concentration of half-maximal effect; tags give direction and shape of the fitted curve.

SMILES	Potency	growth rescue (activation)
O=C(Nc1ccc(-c2nc3cccnc3s2)cc1)c1ccc(Br)o1	inconclusive [activator, partial curve]	
COc1ccc(Cl)cc1NC(=O)c1c(NCc2ccc(C)o2)sc2c1CCCC2	inconclusive [activator, full curve, poor fit]	
COc1ccc([N+](=O)[O-])cc1NC(=O)C(C)Sc1nc(C)c(C)c(C)n1 (configuration not stated)	inconclusive [activator, partial curve]	
NC(=O)c1cc([N+](=O)[O-])ccc1NCc1ccccn1	inconclusive [activator, partial curve, poor fit]	
Cc1ccnc(NC(=O)C2CCCN(S(=O)(=O)c3ccc4[nH]c(=O)ccc4c3)C2)c1 (configuration not stated)		inactive: -0.304%
Cc1cc(=O)oc2c(C)c(OCC(=O)N(C)C)ccc12		inactive: 2.83%
COc1cccc(NC(=O)C2CCN(S(=O)(=O)c3ccc4c(c3)OCCO4)CC2)c1	inconclusive [activator, single point]	
CC(C)(C)C(=O)Nc1nc2c(s1)COc1ccccc1-2	inconclusive [activator, partial curve]	
O=C(COc1ccc(F)cc1Br)NCCCN1CCCC1=O		inactive: 4.69%
COc1cc(/C=C/c2ccc3cccc(O)c3n2)ccc1O	inconclusive [activator, partial curve]	
CCN1CCN(C(c2cccs2)C(C)NC(=O)c2ccccc2OC)CC1 (configuration not stated)	inconclusive [activator, single point]	
CCOC(=O)c1nn(-c2cccc(Cl)c2)c(C)c1C(C)=O	inconclusive [activator, single point]	
O=S(=O)(NC1c2cccc3cccc(c23)C1Sc1ncccn1)c1ccccc1 (configuration not stated)	active: 22.4 µM	
O=C(Nc1nc2c(Cl)ccc(Cl)c2s1)c1ccco1	inconclusive [activator, partial curve]	
O=C(N/N=C\C=C\c1ccc2c(c1)OCO2)C1COc2ccccc2O1 (configuration not stated)	inconclusive [activator, partial curve]	
COc1cccc(-c2nnc(NC(=O)c3cccc(F)c3)o2)c1	inconclusive [activator, full curve]	
Cc1ccnc(SCC(=O)c2ccc(Br)s2)n1	inconclusive [activator, partial curve]	
Cn1c(=O)c2c(-c3ccccc3Br)n(CCc3ccccc3)cc2n(C)c1=O	inconclusive [activator, partial curve]	
CCCCCC1CCC(C(=O)O)CC1 (configuration not stated)	inconclusive [activator, single point]	
Cc1[nH]c2ccccc2c1CCNC(=O)c1ccc2c(c1[N+](=O)[O-])C(=O)c1ccccc1C2=O	inconclusive [activator, partial curve]	
Cc1ccccc1Nc1nc(N)nc(COC(=O)CC2CC3CCC2C3)n1 (configuration not stated)	inconclusive [activator, partial curve]	
O=C(NCC(=O)N1CCN(Cc2ccccc2)CC1)c1ccc(Br)o1		inactive: -6.55%
COc1ccc2oc(C(=O)OC(C)C(=O)N3CCC(C)CC3)c(C)c2c1 (configuration not stated)		inactive: 3.73%

SMILES	Potency	growth rescue (activation)
CCOc1ccc(-c2cc(C(=O)N3CCC(C)CC3)c3ccccc3n2)cc1		inactive: 27.2%
COc1ccc(Nc2nc(N)nc(CSC(=S)N3CCCCC3)n2)cc1		inactive: 19.7%
Cn1c(Oc2ccc(F)cc2)c(C=O)c2ccccc21	inconclusive [activator, single point]	
O=C(CSc1ccc(Cl)cc1)Nc1cccc(NC(=O)c2ccco2)c1	inconclusive [activator, single point]	
CCn1c(CNC(=O)c2cccc(C)c2)nc2ccccc21	inconclusive [activator, full curve, poor fit]	
CCOC(=O)c1c(-c2ccccc2)oc2ccc(NS(=O)(=O)c3ccc(C(C)C)cc3)cc12	inconclusive [activator, single point]	
CC1CCCC(NC(=S)Nc2ccc(SC(F)F)cc2)C1C (configuration not stated)	inconclusive [activator, single point]	
CC(C)CCNc1nc(-c2ccco2)c2c(c1C#N)CCCC2		inactive: 2.23%
CCOc1ccc(CNC(=O)C2Cc3cc(S(=O)(=O)N4CCCCCC4)ccc3N2C(C)=O)cc1 (configuration not stated)		inactive: 20%
CN(C)S(=O)(=O)c1cc([N+](=O)[O-])ccc1N1CCCCCC1	inconclusive [activator, single point]	
CN(CC(=O)Nc1ccccc1Cl)C(=O)CSc1nncs1		inactive: -24.6%
NC(=O)SCC(=O)Nc1ccc(Cl)c(Cl)c1	inconclusive [activator, single point]	
CCN(CC)C(=O)c1ccc(COc2ccccc2Cl)cc1	inconclusive [activator, partial curve]	
COc1cccc(C(NC(C)=O)c2nc(-c3cnn(C)c3)cs2)c1 (configuration not stated)	inconclusive [activator, full curve, poor fit]	
O=C(O)CCCCCN1C(=O)CSC1=S	inconclusive [activator, single point]	
COc1ccccc1OC(=O)c1cc2ccccc2oc1=O	inconclusive [activator, single point]	
COc1ccccc1-c1ncn(Cc2cccc(-c3ccccc3)c2)c1-c1cc(C)cc(C)c1		inactive: -2.34%
Cc1cc(-c2ccc(C)c(S(=O)(=O)NCc3ccc(Br)cc3)c2)on1	active: 17.8 µM	
O=C(CSCc1cnn(-c2ccccc2)c1-n1cccc1)Nc1ccc(F)cc1F	inconclusive [activator, single point]	
Cc1ccc(CNC(=O)c2c(-c3ccccc3Cl)noc2C)cc1	inconclusive [activator, single point]	
COC(=O)c1ccccc1NC(=S)N1CCN(c2ccc(OC)cc2)CC1	inconclusive [activator, partial curve]	
Cc1ccc(CNC(=O)c2c(-c3cccc(Br)c3)noc2C)o1	inconclusive [activator, single point]	
CCn1c(C)c(C)c2cc(C(=O)N3CCc4ccccc4C3)ccc21	active: 20 µM	

SMILES	Potency	growth rescue (activation)
CCCCn1nc2cc(C(=O)NC3CCCc4ccccc43)ccc2c1OCC (configuration not stated)	inconclusive [activator, partial curve]	
CC1CCN(c2c([N+](=O)[O-])c(=O)oc3ccccc23)CC1	inconclusive [activator, partial curve]	
Cc1ccccc1S(=O)(=O)NC(=O)C1(C)CCN1C(=O)Cc1ccc(C(C)(C)C)cc1 (configuration not stated)	inconclusive [activator, single point]	
Cc1ccc(CN(C(=O)COc2ccc(Br)cc2)c2ccccn2)o1	inconclusive [activator, partial curve]	
S=C(NCc1cccs1)Nc1cccc(Cl)c1Cl	inconclusive [activator, single point]	
COc1ccc(Cl)cc1N(C)C(=O)C(=O)Nc1ccc2nc3n(c(=O)c2c1)CCCCC3	inconclusive [activator, partial curve, poor fit]	
COc1ccccc1C1C=C(c2ccc(Cl)cc2)Nc2nc(-c3ccc(Cl)cc3)nn21 (configuration not stated)	inconclusive [activator, single point]	
CCOC(=O)c1[nH]c2ccc(OC)cc2c1NC(=O)c1ccc(OC)c(OC)c1	inconclusive [activator, single point]	
CCc1c(-c2cccc(Br)c2)ncn1Cc1cccc(-c2ccccc2)c1	inconclusive [activator, single point]	
COc1ccc(N2CCN(S(=O)(=O)CCNC(=O)COc3ccccc3C)CC2)cc1	inconclusive [activator, partial curve]	
Cc1[nH]c2ccc(C(=O)N3CCN(c4cccc(Cl)c4)CC3)cc2c1C	inconclusive [activator, single point]	
COc1ccc(OCC(=O)NCCS(=O)(=O)N2CCN(c3cccc(Cl)c3)CC2)cc1	inconclusive [activator, partial curve]	
CCn1cc(C(=O)N(C)Cc2ccccc2)c(=O)c2cc(S(=O)(=O)N3CCCCCC3)ccc21	inconclusive [activator, partial curve]	
CO/N=C(\c1nonc1N)N1CCN(c2ccc([N+](=O)[O-])cc2Cl)CC1		inactive: 28.3%
Cc1cc(-c2ccc(Br)cc2)n2nc(C)cc2n1	inconclusive [activator, single point]	
CC1CCc2sc(C(=O)NCc3ccc(F)cc3)cc2C1 (configuration not stated)	inconclusive [activator, full curve]	
Nc1ccccc1-n1nc2ccc3ccccc3c2n1	inconclusive [activator, partial curve]	
COc1ccc(C(=S)N2CCOCC2)cc1OC(=O)c1cccc([N+](=O)[O-])c1	inconclusive [activator, partial curve]	
O=C(c1cccc(F)c1)N1CCN(C(=O)c2cc(-c3ccc(Cl)cc3Cl)on2)CC1	inconclusive [activator, single point]	
COCc1cccc(-c2csc(C(C)(O)c3ccccc3)n2)c1 (configuration not stated)	active: 35.5 µM	
O=C(N/N=C/c1cc([N+](=O)[O-])ccc1O)c1cccc2cc[nH]c12	inconclusive [activator, partial curve]	
